Data as given in patent US20230133118A1, “COMPOSITIONS AND METHODS FOR TREATING CANCER” (Adagene AG, priority 2020, published 2023).

Test system: advanced or metastatic solid tumors and/or non-Hodgkin lymphoma
Assay: Phase 1 clinical studies of ADG106 (US NCT03707093, China NCT03802955): anti-tumor efficacy
Format: in vivo, human
Set-up: key to Response: CR: disappearance of all target lesions; PR: at least a 30% decrease in the sum of the longest diameters (SLD) of target lesions; SD: neither sufficient shrinkage of target lesions to qualify for PR, nor sufficient increase to qualify for PD; PD: at least a 20% increase in the SLD of target lesions
[1] = China update, 48 patients with post-tumor scans
[2] = US update, 23 patients with post-tumor scans
[3] = dose escalation 1.5 mg/kg CN n=5
[4] = dose escalation 3.0 mg/kg US n=3, CN n=3

ADG106: fully human agonistic anti-CD137 monoclonal IgG4 antibody; heavy chain SEQ ID NO: 10, light chain SEQ ID NO: 11
Disease control rate (China update): 58% | patients with tumor shrinkage (China update): 10 patients | best response PD [1]: 20 patients | best response PR [1]: 1 patient | best response SD [1]: 27 patients | CR or PR (US update): there was no CR or PR | patients with tumor shrinkage (US update): 3 patients | Disease control rate [2]: 52% | best response PD [2]: 11 patient | best response SD [2]: 12 patient | tumor size decreased (US update, patient with endometrial carcinoma): 5% | tumor size decreased (US update, patient with esophageal carcinoma): 18% | tumor size decreased (US update, patient with follicular lymphoma): 2% | Stable Disease, patients (accelerated titration 0.03 mg/kg US n=1): 1 | Progressive disease, patients (accelerated titration 0.1 mg/kg US n=1, CN n=1): 2 | Stable Disease, patients (accelerated titration 0.3 mg/kg US n=1): 1 | patients with tumor size reduction (among the 17 patients with stable disease): 7 patients | pharmacologically active dose (clinical responses and exploratory PD analysis, monotherapy): ≥ 1 mg/kg | Stable Disease, patients (dose escalation 0.5 mg/kg CN n=3): 1 | Stable Disease, patients (dose escalation 1.0 mg/kg US n=4): 1 | Progressive disease, patients [3]: 3 | Stable Disease, patients [3]: 2 | Progressive disease, patients [4]: 2 | Stable Disease, patients [4]: 4 | Stable Disease, patients (dose escalation 5.0 mg/kg US n=3, CN n=3): 4 | Progressive disease, patients (dose escalation 10.0 mg/kg US n=3, CN n=2): 2 | Stable Disease, patients (dose expansion 3.0 mg/kg US n=3, CN n=3): 3 | Response (individual patient, 0.1 mg/kg, NSCLC): PD (at least a 20% increase in the SLD of target lesions) | Response (individual patient, 0.5 mg/kg, NSCLC): SD | Response (individual patient, 1.5 mg/kg, NSCLC): PD (at least a 20% increase in the SLD of target lesions) | Response (individual patient, 3 mg/kg, AITL): SD | Response (individual patient, 3 mg/kg, Melanoma): SD | Response (individual patient, 3 mg/kg, NSCLC): SD | Response (individual patient, 5 mg/kg, Mucinous adenocarcinoma): SD | Response (individual patient, 10 mg/kg, NSCLC): SD | Response (individual patients, 0.5 mg/kg, NPC): PD (at least a 20% increase in the SLD of target lesions) | Response (individual patients, 3 mg/kg, ACC): SD | Response (individual patients, 5 mg/kg, Lymphoma): SD | Response (individual patients, 5 mg/kg, NPC): PD (at least a 20% increase in the SLD of target lesions); also recorded: PR (at least a 30% decrease in the sum of the longest diameters (SLD) of target lesions) | tumor shrinkage (lymphoma patient with 20.54% CD137L expression, two cycles): 32% | tumor shrinkage (lymphoma patient with 23.08% CD137L expression, two cycles): 36% | Progressive disease, patients (overall N=40): 13 | Progressive disease, percent of patients (overall N=40): (32.5) % | Stable Disease, patients (overall N=40): 17 | tumor size reduction (patient R017, after one cycle): > 30% | tumor shrinkage (patient R017, angioimmunoblastic T cell lymphoma, after four cycles): 33% | overall tumor shrinkage of the targeted lesions (stage III angioimmunoblastic T cell lymphoma patient, after one dose): 33%

Entries after “also recorded” stand apart in the source; their conditions may differ.
